From US12286661B2, “Methods for making high intensity sweeteners” (Firmenich Incorporated, priority 2018, dated 2025)

B1: SEQ ID NO 967: fusion protein having cucurbitadienol synthase activity (protein)
chain: MWRLKVGKESVGEKEEKWIKSISNHLGRQVWEFCSGENENDDDEAIAVANNSASKFENARNHFRNNRFHRKQSSDLFLAIQCEKEIIRNGAKNEGTTKVKEGEDVKKEAVKNTLERALSFYSAVQTSDGNWASDLGGPMFLLPGLVIALYVTGVLNSVLSKHHRQEMCRYIYNHQNEDGGWGLHIEGSSTMFGSALNYVALRLLGEAADGGEHGAMTKARSWILERGGATAITSWGKLWLSVLGVYEWSGNNPLPPEFWLLPYSLPFHPGRMWCHCRMVYLPMSYLYGKRFVGPITPIVLSLRKELYTIPYHEIDWNRSRNTCAKEDLYYPHPKMQDILWGSIYHVYEPLFSGWPGKRLREKAMKIAMEHIHYEDENSRYICLGPVNKVLNMLCCWVEDPYSDAFKFHLQRIPDYLWLAEDGMRMQGYNGSQLWDTAFSIQAIISTKLIDTFGPTLRKAHHFVKHSQIQEDCPGDPNVWFRHIHKGAWPFSTRDHGWLISDCTAEGLKASLMLSKLPSKIVGEPLEKNRLCDAVNVLLSLQNENGGFASYELTRSYPWLELINPAETFGDIVIDYSYVECTSATMEALALFKKLHPGHRTKEIDAAIAKAANFLENMQKTDGSWYGCWGVCFTYAGWFGIKGLVAAGRTYNNCVAIRKACNFLLSKELPGGGWGESYLSCQNKVYTNLEGNKPHLVNTAWVMMALIEAGQGERDPAPLHRAARLLINSQLESGDFPQQEIMGVFNKNCMITYAAYRNIFPIWALGEYSHRVLDMGSAAPGSGSGSGMAVQNHILPLTRVM
modifications: SS4b-D4 Full Gene AA seq
B2: SEQ ID NO 971: fusion protein having cucurbitadienol synthase activity (protein)
chain: MWRLKVGKESVGEKEEKWIKSISNHLGRQVWEFCSGENENDDDEAIAVANNSASKFENARNHFRNNRFHRKQSSDLFLAIQCEKEIIRNGAKNEGTTKVKEGEDVKKEAVKNTLERALSFYSAVQTSDGNWASDLGGPMFLLPGLVIALYVTGVLNSVLSKHHRQEMCRYIYNHQNEDGGWGLHIEGSSTMFGSALNYVALRLLGEAADGGEHGAMTKARSWILERGGATAITSWGKLWLSVLGVYEWSGNNPLPPEFWLLPYSLPFHPGRMWCHCRMVYLPMSYLYGKRFVGPITPIVLSLRKELYTIPYHEIDWNRSRNTCAKEDLYYPHPKMQDILWGSIYHVYEPLFSGWPGKRLREKAMKIAMEHIHYEDENSRYICLGPVNKVLNMLCCWVEDPYSDAFKFHLQRIPDYLWLAEDGMRMQGYNGSQLWDTAFSIQAIISTKLIDTFGPTLRKAHHFVKHSQIQEDCPGDPNVWFRHIHKGAWPFSTRDHGWLISDCTAEGLKASLMLSKLPSKIVGEPLEKNRLCDAVNVLLSLQNENGGFASYELTRSYPWLELINPAETFGDIVIDYSYVECTSATMEALALFKKLHPGHRTKEIDAAIAKAANFLENMQKTDGSWYGCWGVCFTYAGWFGIKGLVAAGRTYNNCVAIRKACNFLLSKELPGGGWGESYLSCQNKVYTNLEGNKPHLVNTAWVMMALIEAGQGERDPAPLHRAARLLINSQLESGDFPQQEIMGVFNKNCMITYAAYRNIFPIWALGEYSHRVLDMGSAAPGSGSGSGMSASTHSPEPCL
modifications: SS4c-C4a Full Gene AA seq
B3: SEQ ID NO 964: fusion protein having cucurbitadienol synthase activity (protein)
chain: MWRLKVGKESVGEKEEKWIKSISNHLGRQVWEFCSGENENDDDEAIAVANNSASKFENARNHFRNNRFHRKQSSDLFLAIQCEKEIIRNGAKNEGTTKVKEGEDVKKEAVKNTLERALSFYSAVQTSDGNWASDLGGPMFLLPGLVIALYVTGVLNSVLSKHHRQEMCRYIYNHQNEDGGWGLHIEGSSTMFGSALNYVALRLLGEAADGGEHGAMTKARSWILERGGATAITSWGKLWLSVLGVYEWSGNNPLPPEFWLLPYSLPFHPGRMWCHCRMVYLPMSYLYGKRFVGPITPIVLSLRKELYTIPYHEIDWNRSRNTCAKEDLYYPHPKMQDILWGSIYHVYEPLFSGWPGKRLREKAMKIAMEHIHYEDENSRYICLGPVNKVLNMLCCWVEDPYSDAFKFHLQRIPDYLWLAEDGMRMQGYNGSQLWDTAFSIQAIISTKLIDTFGPTLRKAHHFVKHSQIQEDCPGDPNVWFRHIHKGAWPFSTRDHGWLISDCTAEGLKASLMLSKLPSKIVGEPLEKNRLCDAVNVLLSLQNENGGFASYELTRSYPWLELINPAETFGDIVIDYSYVECTSATMEALALFKKLHPGHRTKEIDAAIAKAANFLENMQKTDGSWYGCWGVCFTYAGWFGIKGLVAAGRTYNNCVAIRKACNFLLSKELPGGGWGESYLSCQNKVYTNLEGNKPHLVNTAWVMMALIEAGQGERDPAPLHRAARLLINSQLESGDFPQQEIMGVFNKNCMITYAAYRNIFPIWALGEYSHRVLDMGSAAPGSGSGSGMIKHIVSPFRTNFVGISKSVLSRMIHHKVTIIGSGPAAHTAAIYLARAEMKPTLYEGMMANGIAAGGQLTTTTDIENFPGFPESLSGSELMERMRKQSAKFGTNIIIETVSKVDLSSKPFRLWTEFNEDAEPVTTDAIILATGASAKRMHLPGEETYWQQGISACAVCDGAVPIFRNKPLAVIGGGDSACEEAEFLTKYASKVYILVRKDHFRASVIMQRRIEKNPNIIVLFNTVALEAKGDGKLLNMLRIKNTKSNVENDLEVNGLFYAIGHSPATDIVKGQVDEEETGYIKTVPGSSLTSVPGFFAAGDVQDSRYRQAVTSAGSGCIAALDAERYLSAQE
modifications: SS4b-B8b Full Gene AA seq
B4: SEQ ID NO 975: fusion protein having cucurbitadienol synthase activity (protein)
chain: MWRLKVGKESVGEKEEKWIKSISNHLGRQVWEFCSGENENDDDEAIAVANNSASKFENARNHFRNNRFHRKQSSDLFLAIQCEKEIIRNGAKNEGTTKVKEGEDVKKEAVKNTLERALSFYSAVQTSDGNWASDLGGPMFLLPGLVIALYVTGVLNSVLSKHHRQEMCRYIYNHQNEDGGWGLHIEGSSTMFGSALNYVALRLLGEAADGGEHGAMTKARSWILERGGATAITSWGKLWLSVLGVYEWSGNNPLPPEFWLLPYSLPFHPGRMWCHCRMVYLPMSYLYGKRFVGPITPIVLSLRKELYTIPYHEIDWNRSRNTCAKEDLYYPHPKMQDILWGSIYHVYEPLFSGWPGKRLREKAMKIAMEHIHYEDENSRYICLGPVNKVLNMLCCWVEDPYSDAFKFHLQRIPDYLWLAEDGMRMQGYNGSQLWDTAFSIQAIISTKLIDTFGPTLRKAHHFVKHSQIQEDCPGDPNVWFRHIHKGAWPFSTRDHGWLISDCTAEGLKASLMLSKLPSKIVGEPLEKNRLCDAVNVLLSLQNENGGFASYELTRSYPWLELINPAETFGDIVIDYSYVECTSATMEALALFKKLHPGHRTKEIDAAIAKAANFLENMQKTDGSWYGCWGVCFTYAGWFGIKGLVAAGRTYNNCVAIRKACNFLLSKELPGGGWGESYLSCQNKVYTNLEGNKPHLVNTAWVMMALIEAGQGERDPAPLHRAARLLINSQLESGDFPQQEIMGVFNKNCMITYAAYRNIFPIWALGEYSHRVLDMGSAAPGSGSGSGMGTSIVNLNQKIELPPIQVLFESLNRENETKPHFEERRLYQPNPSFVPRTNIAVGSPVNPVPVSSPVFFIGPSPQRSIQNHNAIMTQNIRQYPVIYNNNREVISTGERNYIITVGGPPVTSSQPEYEHISTPNFYQEQRLAQPHPVNESMMIGGYTNPQPISISRGKMLSGNISTNSVRGSNNGYSAKEKKHKAHGKRSNLPKATVSILNKWLHEHVNNPYPTVQEKRELLAKTGLTKLQISNWFINARRRKIFSGQNDANNFRRKFSSSTNLAKF
modifications: SS4c-C4b Full Gene AA seq

What follows are molecules tested on cucurbitadienol synthase activity (assay: Cucurbitadienol synthase activities of fusion proteins in yeast strain with oxidosqualene boost, LCMS). Details: average % activities over the average activities of the parent enzyme (Cucumis melo cucurbitadienol synthase).
Assay type: cell-based, S. cerevisiae
Description: For analyzing cucurbitadienol, the first LCMS method included the use of C4 2.1×100 mm column, gradient 1 to 95% B for 6 minutes, and at flow rate of 0.55 ml/min; and the second LCMS method included the use of Waters Acquity UPLC Protein BEH C4 2.1×100 […], 1.7 μm, with guard, 62 to 67% B for 2 min, 100% B for 1 min, and at flow rate of 0.9 ml/min and ESI source positive single ion monitoring of 427 and 409.
The gene encoding for a cucurbitadienol synthase form Cucumis melo was codon optimized (SEQ ID: 907) and used as a starting point for generating a library of modifications. Modifications were introduced through standard molecular biology techniques consisting of fusion peptides at the N-terminus (i.e., 5′) or C-terminus (i.e., 3′) end of the enzyme. Plasmids libraries of modified cucurbitadienol synthase genes were transformed into a yeast strain with oxidosqualene boost. Enzyme activities were measured by ratios of peak heights or areas of 409 and 427 positive mass fragments at the expected retention times for cucurbitadienol vs. an internal standard using LCMS method 2 described above. Enzyme performance were scored as average % activities over the average activities of the parent enzyme (n=8). Step 1 sequences of the enzymes and the sequences that encode the enzyme can be found in SEQ ID NOs: 951-1012. Step 1 sequence also include the fusions SS2c-G10, SS2e-A7b, SS2d-G11. SS2e-A7a, SS4d-G5, SS4d-C7, SS3b-D8, and SS2c-A10a are disclosed herein.
A collection or library of S. cerevisiae in-frame fusion polynucleotdies for a cucurbitadienol synthase gene (DNA coding sequence provided in SEQ ID NO: 907, and protein sequence provided in SEQ ID NO: 902) was prepared. The in-frame fusion polynucleotides were cloned into a yeast vector molecule to generate fusion proteins.
Various fusion proteins were generated and tested for cucurbitadienol synthase activities.

Going from B1 to B2, the “Activity (as compared to the parent)” value rises from 72% to 89%.

Going from B3 to B4, the “Activity (as compared to the parent)” value falls from 74% to 35%.
